This is one part of the list. At the low end of the ranking the order means little.
target: T1, GST-Rok-C97-191 (UniProt O34857); assay: protein binding microarray; conditions: Rok is a gene silencer of Bacillus subtilis; high values mean tight binding; most listed sequences are background and not binding sites; double strand, one strand shown;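 further: rank score from −0.5 (least bound) to 0.5 (best bound)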
T1 sequence: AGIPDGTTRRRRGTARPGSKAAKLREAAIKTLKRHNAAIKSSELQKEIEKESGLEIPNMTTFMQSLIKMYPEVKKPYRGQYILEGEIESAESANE

Sequence	binding signal
GTTACACA	0.142 E-score
ATGGACCG	-0.194 E-score
AGGATCTA	0.183 E-score
GGCAACAC	-0.176 E-score
GCGCCAGA	-0.342 E-score
CATCCTCC	-0.302 E-score
ACCACAGA	0.0469 E-score
GAGATTGA	-0.0176 E-score
ACGGGCGC	-0.156 E-score
AAAACATA	0.28 E-score
TCACGAGA	-0.274 E-score
ACCGCATA	0.0586 E-score
AGGAATCG	0.101 E-score
GATGAGCC	-0.152 E-score
GAAAGGAA	-0.159 E-score
GCGAAACC	-0.131 E-score
CCATGAGA	-0.0411 E-score
CCGTATCG	0.044 E-score
CCCTATAA	0.208 E-score
ACGGTGAC	0.183 E-score
ATTTGACC	-0.0639 E-score
GCAATGAC	-0.114 E-score

Sequence	binding signal
TGTACACA	0.092 E-score
ACGAATAC	0.164 E-score
AAGGCAGC	0.0072 E-score
CGACTTAG	-0.0242 E-score
AGGAATAC	-0.0617 E-score
CATCCATC	-0.0668 E-score
ATCTTTGC	-0.0493 E-score
CCACTACC	-0.0241 E-score
TCTAATAA	0.105 E-score
AAAGAACC	-0.0601 E-score
GACGGCGA	-0.075 E-score
AGCCACAT	-0.216 E-score
ATGATGCC	-0.00555 E-score
ATCGAGCC	0.0749 E-score
AAATTCCG	0.125 E-score
ACTGGATG	0.000565 E-score
AAACCGGT	0.0595 E-score
ATACAGTG	0.166 E-score
GTATAGGA	0.0447 E-score
GGACCTAA	-0.0552 E-score
ATGGCAGA	-0.151 E-score
GATAAATA	0.323 E-score

Sequence	binding signal
CTTCACGA	-0.287 E-score
GCCTAACC	-0.229 E-score
GGCATTGA	-0.0187 E-score
CCGGAGCA	-0.222 E-score
CATGGTAC	0.229 E-score
CATCGCCA	-0.266 E-score
GCTCACGA	-0.137 E-score
CTCACGAG	-0.0336 E-score
GCTTGAGA	-0.168 E-score
CAGATGGC	-0.277 E-score
CCTGCTAC	0.0117 E-score
ATCAAAAA	0.0303 E-score
AAGACGTC	-0.0333 E-score
CCAGCATA	0.017 E-score
TGGGGAAA	0.131 E-score
GACTAAAC	0.0134 E-score
ATCGTAGA	0.296 E-score
AAACATTC	0.0952 E-score
ACGGTAAT	0.276 E-score
GGTTCCGA	0.0637 E-score
TCCGCACA	-0.0678 E-score
CGGAATGA	0.0343 E-score

Sequence	binding signal
GCACTTTA	-0.0969 E-score
ACGGAGGG	-0.206 E-score
CGAACGCA	-0.00633 E-score
CGTGGTTC	-0.115 E-score
ACAGCGAG	-0.326 E-score
AGTGAGAG	0.109 E-score
ATCAAGGG	-0.217 E-score
GGTATCGA	-0.0093 E-score
AAACTAGC	0.337 E-score
GCCAATAC	-0.0999 E-score
CCGCGTAA	-0.0304 E-score
CGTCCTAC	0.00625 E-score
GAACTCCC	-0.159 E-score
GGTCGAGA	-0.114 E-score
GCCCCCTA	-0.207 E-score
CAGGCCTG	-0.382 E-score
CCTTCGCA	-0.0514 E-score
ATAAAGGG	0.076 E-score
ATGTGGTG	0.153 E-score
CTGTGATC	0.136 E-score
